Measurements taken from patent US20110319597A1 (CAPHALON AUSTRALIA, published 2011).

biological target: recombinant human TNFα (human, UniProt P01375 partial chain); experiment: cell-based or functional assay
Sequence of UniProt P01375 (P01375 77-233 limits assumed): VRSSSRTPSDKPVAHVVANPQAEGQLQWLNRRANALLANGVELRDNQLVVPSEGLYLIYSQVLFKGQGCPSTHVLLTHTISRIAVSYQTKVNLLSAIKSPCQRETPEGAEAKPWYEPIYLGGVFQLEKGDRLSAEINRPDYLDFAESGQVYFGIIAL

Binder	Standardized EC50, L929 neutralization assay (5-point)
TNFα dAb Fc variant S12P (Fc fusion, name in Kabat numbering) DIQMTQSPSSLPASVGDRVTITCRASQAIDSYLHWYQQKPGKAPKLLIYSASNLETGVPSRFSGSGSGTDFTLTISSLLPEDFATYYCQQVVWRPFTFGQGTKVEIKRV[human IgG1 Fc with changes left out]	1.35 µg/mL
TNFα dAb Fc variant S12K (Fc fusion, name in Kabat numbering) DIQMTQSPSSLKASVGDRVTITCRASQAIDSYLHWYQQKPGKAPKLLIYSASNLETGVPSRFSGSGSGTDFTLTISSLLPEDFATYYCQQVVWRPFTFGQGTKVEIKRV[human IgG1 Fc with changes left out]	1.05 µg/mL
TNFα dAb Fc variant G16Y (Fc fusion, name in Kabat numbering) DIQMTQSPSSLSASVYDRVTITCRASQAIDSYLHWYQQKPGKAPKLLIYSASNLETGVPSRFSGSGSGTDFTLTISSLLPEDFATYYCQQVVWRPFTFGQGTKVEIKRV[human IgG1 Fc with changes left out]	1.97 µg/mL
TNFα dAb Fc variant D17A (Fc fusion, name in Kabat numbering) DIQMTQSPSSLSASVGARVTITCRASQAIDSYLHWYQQKPGKAPKLLIYSASNLETGVPSRFSGSGSGTDFTLTISSLLPEDFATYYCQQVVWRPFTFGQGTKVEIKRV[human IgG1 Fc with changes left out]	4.67 µg/mL
TNFα dAb Fc variant D17S (Fc fusion, name in Kabat numbering) DIQMTQSPSSLSASVGSRVTITCRASQAIDSYLHWYQQKPGKAPKLLIYSASNLETGVPSRFSGSGSGTDFTLTISSLLPEDFATYYCQQVVWRPFTFGQGTKVEIKRV[human IgG1 Fc with changes left out]	0.909 µg/mL
TNFα dAb Fc variant D17L (Fc fusion, name in Kabat numbering) DIQMTQSPSSLSASVGLRVTITCRASQAIDSYLHWYQQKPGKAPKLLIYSASNLETGVPSRFSGSGSGTDFTLTISSLLPEDFATYYCQQVVWRPFTFGQGTKVEIKRV[human IgG1 Fc with changes left out]	2.66 µg/mL
TNFα dAb Fc variant D17Q (Fc fusion, name in Kabat numbering) DIQMTQSPSSLSASVGQRVTITCRASQAIDSYLHWYQQKPGKAPKLLIYSASNLETGVPSRFSGSGSGTDFTLTISSLLPEDFATYYCQQVVWRPFTFGQGTKVEIKRV[human IgG1 Fc with changes left out]	0.863 µg/mL
TNFα dAb Fc variant D17H (Fc fusion, name in Kabat numbering) DIQMTQSPSSLSASVGHRVTITCRASQAIDSYLHWYQQKPGKAPKLLIYSASNLETGVPSRFSGSGSGTDFTLTISSLLPEDFATYYCQQVVWRPFTFGQGTKVEIKRV[human IgG1 Fc with changes left out]	10.5 µg/mL
TNFα dAb Fc variant D17P (Fc fusion, name in Kabat numbering) DIQMTQSPSSLSASVGPRVTITCRASQAIDSYLHWYQQKPGKAPKLLIYSASNLETGVPSRFSGSGSGTDFTLTISSLLPEDFATYYCQQVVWRPFTFGQGTKVEIKRV[human IgG1 Fc with changes left out]	668 µg/mL
TNFα dAb Fc variant D17K (Fc fusion, name in Kabat numbering) DIQMTQSPSSLSASVGKRVTITCRASQAIDSYLHWYQQKPGKAPKLLIYSASNLETGVPSRFSGSGSGTDFTLTISSLLPEDFATYYCQQVVWRPFTFGQGTKVEIKRV[human IgG1 Fc with changes left out]	8.84 µg/mL

Other lines, results leading:

Standardized EC50, L929 neutralization assay (5-point)	Binder
0.681 µg/mL	TNFα dAb Fc variant S14A (Fc fusion, name in Kabat numbering) DIQMTQSPSSLSAAVGDRVTITCRASQAIDSYLHWYQQKPGKAPKLLIYSASNLETGVPSRFSGSGSGTDFTLTISSLLPEDFATYYCQQVVWRPFTFGQGTKVEIKRV[human IgG1 Fc with changes left out]
2.67 µg/mL	TNFα dAb Fc variant S14L (Fc fusion, name in Kabat numbering) DIQMTQSPSSLSALVGDRVTITCRASQAIDSYLHWYQQKPGKAPKLLIYSASNLETGVPSRFSGSGSGTDFTLTISSLLPEDFATYYCQQVVWRPFTFGQGTKVEIKRV[human IgG1 Fc with changes left out]
1.92 µg/mL	TNFα dAb Fc variant S14Y (Fc fusion, name in Kabat numbering) DIQMTQSPSSLSAYVGDRVTITCRASQAIDSYLHWYQQKPGKAPKLLIYSASNLETGVPSRFSGSGSGTDFTLTISSLLPEDFATYYCQQVVWRPFTFGQGTKVEIKRV[human IgG1 Fc with changes left out]
2.26 µg/mL	TNFα dAb Fc variant S14D (Fc fusion, name in Kabat numbering) DIQMTQSPSSLSADVGDRVTITCRASQAIDSYLHWYQQKPGKAPKLLIYSASNLETGVPSRFSGSGSGTDFTLTISSLLPEDFATYYCQQVVWRPFTFGQGTKVEIKRV[human IgG1 Fc with changes left out]
0.841 µg/mL	TNFα dAb Fc variant S14Q (Fc fusion, name in Kabat numbering) DIQMTQSPSSLSAQVGDRVTITCRASQAIDSYLHWYQQKPGKAPKLLIYSASNLETGVPSRFSGSGSGTDFTLTISSLLPEDFATYYCQQVVWRPFTFGQGTKVEIKRV[human IgG1 Fc with changes left out]
4130 µg/mL	TNFα dAb Fc variant S14H (Fc fusion, name in Kabat numbering) DIQMTQSPSSLSAHVGDRVTITCRASQAIDSYLHWYQQKPGKAPKLLIYSASNLETGVPSRFSGSGSGTDFTLTISSLLPEDFATYYCQQVVWRPFTFGQGTKVEIKRV[human IgG1 Fc with changes left out]
9.96 µg/mL	TNFα dAb Fc variant S14P (Fc fusion, name in Kabat numbering) DIQMTQSPSSLSAPVGDRVTITCRASQAIDSYLHWYQQKPGKAPKLLIYSASNLETGVPSRFSGSGSGTDFTLTISSLLPEDFATYYCQQVVWRPFTFGQGTKVEIKRV[human IgG1 Fc with changes left out]
1.76 µg/mL	TNFα dAb Fc variant S14K (Fc fusion, name in Kabat numbering) DIQMTQSPSSLSAKVGDRVTITCRASQAIDSYLHWYQQKPGKAPKLLIYSASNLETGVPSRFSGSGSGTDFTLTISSLLPEDFATYYCQQVVWRPFTFGQGTKVEIKRV[human IgG1 Fc with changes left out]
2.4 µg/mL	TNFα dAb Fc variant V15A (Fc fusion, name in Kabat numbering) DIQMTQSPSSLSASAGDRVTITCRASQAIDSYLHWYQQKPGKAPKLLIYSASNLETGVPSRFSGSGSGTDFTLTISSLLPEDFATYYCQQVVWRPFTFGQGTKVEIKRV[human IgG1 Fc with changes left out]
1.24 µg/mL	TNFα dAb Fc variant V15P (Fc fusion, name in Kabat numbering) DIQMTQSPSSLSASPGDRVTITCRASQAIDSYLHWYQQKPGKAPKLLIYSASNLETGVPSRFSGSGSGTDFTLTISSLLPEDFATYYCQQVVWRPFTFGQGTKVEIKRV[human IgG1 Fc with changes left out]
